Results reported in PubChem BioAssay AID662 (National Center for Advancing Translational Sciences (NCATS), 2007).
The campaign covered roughly 71,000 compounds. About 1,800 (2.5%) were called active. The shares of active, inactive and inconclusive entries below differ from those in the screen. Calls come from the whole dose curve; as a rule, active = well fitted activation curve with a large enough effect in the signal ratio, with a control signal flat (not every such curve was filed as active); inconclusive = small, poorly fitted or top-dose-only effect, or effect the other way, or a change in a side signal; inactive = flat fitted curve, though single readings scatter; the % refers to the signal ratio. A potency beside an inconclusive call is a rough fit, not a confirmed value.

assay: Cell signaling CRE-BLA (Fsk stim); settings: CHO CRE-bla reporter (cAMP response element driving beta-lactamase), forskolin EC10, beta-lactamase ratio; activity change, negative = inhibition: at 38.2 µM (top of the series) unless noted; for activity change, negative = inhibition: % of control where 0% means no effect
Outline: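 Beta-lactamase reporter under a cAMP responsive element in CHO cells; compounds tested in titration series against EC10 NKH 477, 3 h at 37 °C. Read-out: CCF4 FRET ratio 460nm/530nm (excitation 405nm) giving %Activity, fitted to AC50.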
Potency is the fitted concentration of half-maximal effect; tags give direction and shape of the fitted curve.

Row | SMILES | activity change, negative = inhibition | Potency
1 | CCN(CC(=O)Nc1ccc2c(c1)OCO2)Cc1nc2ccccc2c(=O)[nH]1 | inconclusive: 22.3% | –
2 | COc1cccc(C(=O)N2CCSC2=S)c1 | – | inconclusive: 10 µM [falling, single point]
3 | CCn1c(SCC(=O)c2ccc(C)cc2)nnc1-c1ccoc1C | inactive: 0.105% | –
4 | COc1cccc(N2CCN(Cc3coc4c(Cl)cc(Cl)cc4c3=O)CC2)c1 | inconclusive: -8.86% | –
5 | CCOC(=O)c1oc2ccccc2c1NC(=O)c1ccc2c(c1)OCO2 | inconclusive: 21.8% | –
6 | CCNc1ncc2nc(-c3ccc(OC)cc3)c(=O)n(CCC#N)c2n1 | – | inconclusive: 3.16 µM [rising, partial curve]
7 | O=C(CCc1ccccc1)NC1CCSC1=O (stereo not drawn) | – | inconclusive: 0.631 µM [rising, full curve, poor fit]
8 | COCCn1c(Cc2ccccc2)nnc1SCC(=O)N(C)C | inactive: 18.9% | –
9 | c1ccc2c(c1)ncc1cccn12 | inactive: -4.49% | –
10 | COc1cccc(S(=O)(=O)Nc2ccc3sc(C)nc3c2)c1 | inconclusive: 23.5% | –
11 | CCOC(=O)C(C)Oc1cccc2c(=O)n(CC(=O)NCc3ccc4c(c3)OCO4)ccc12 (stereo not drawn) | inconclusive: -11.3% | –
12 | O=C(Nc1ccccc1N1CCCCC1)c1cccc(F)c1 | – | active: 12.6 µM
13 | CC(=O)C1=C(C)NC(SCC(=O)c2ccccc2)=C(C#N)C1c1ccco1 (stereo not drawn) | inconclusive: 28.5% | –
14 | Cc1ccccc1OCc1nnc2c3cnn(C)c3ncn12 | – | inconclusive: 3.16 µM [rising, single point]
15 | CC(=O)Nc1ccc(-c2nnc(SCC(=O)n3c4c(c5ccccc53)CCCC4)n2C)cc1 | – | inconclusive: 0.0501 µM [rising, full curve, poor fit]
16 | O=S(=O)(Cc1ccccc1)N1CCN(Cc2ccc3c(c2)OCO3)CC1 | inactive: -6.02% | –
17 | Cc1ccccc1-c1nc(CS(=O)CC(=O)NCCCN(C)c2ccccc2)c(C)o1 (stereo not drawn) | inconclusive: -23.5% | –
18 | Cc1cccc2cc(C#N)c(SCC(=O)N3CCC(C)CC3)nc12 | inconclusive: 26.6% | –
19 | O=C(O)CCCCCN=C1CCc2ccccc2N1 | inactive: -11.9% | –
20 | N#Cc1ccc(OC(=O)c2ccc(N=C(N)N)cc2)cc1 | inconclusive: -13.1% [at 7.6 µM] | –
21 | COc1ccc(NC(=O)c2cc(OC)c(OC)c(OC)c2)cn1 | – | inconclusive: 0.0794 µM [rising, full curve]

Row | SMILES | activity change, negative = inhibition | Potency
22 | Cc1cc(C)nc(NC2=NCC(=O)N2CCc2c[nH]c3ccccc23)n1 | inactive: -7.93% | –
23 | COc1ccc2c(c1)c(=O)oc1cc(OCC(=O)NC3CC3)ccc12 | inactive: 4.11% | –
24 | N[C@@H](C(=O)O)[C@H](O)C(=O)O | inactive: -2.36% | –
25 | O=S(=O)(c1cccc2cnccc12)N1CCCNCC1 | – | inconclusive: 10 µM [falling, partial curve, poor fit]
26 | COC(=O)CCC(=O)N1CCc2cc(S(=O)(=O)N3CCc4ccccc43)ccc21 | inconclusive: -5.19% | –
27 | O=C(O)[C@@H]1[C@@H]2O[C@H]([C@@H](Br)[C@H]2Br)[C@H]1C(=O)O | – | inconclusive: 3.16 µM [rising, single point]
28 | CCOc1ccc(-c2nnn(CC(=O)c3ccc4c(c3)OCCO4)n2)cc1OCC | – | inconclusive: 10 µM [rising, partial curve]
29 | Cc1ccc(OC(=O)CCc2c(C)nc3ncnn3c2C)cc1 | – | inconclusive: 1 µM [rising, full curve]
30 | CCCN(C#N)c1nc(NCC)nc(NC(C)C)n1 | – | active: 10 µM
31 | O=C(c1ccco1)N1CCC2(CCCN(c3ccccc3)C2)CC1 | inactive: 4.84% | –
32 | CCCCCn1c(SCC2CCCO2)nc2cc(C(=O)N3CCC(C(N)=O)CC3)ccc2c1=O (stereo not drawn) | – | inconclusive: 20 µM [rising, single point]
33 | COc1ccc(-c2cc(C(F)(F)F)nc(S(C)(=O)=O)n2)cc1OC | inconclusive: 2% | –
34 | COc1ccccc1C1CC(c2ccc(F)cc2)Nc2ncnn21 (stereo not drawn) | inconclusive: -7.85% | –
35 | CCN(CC)c1ccc(C(=O)Nc2cccc(F)c2)cc1 | inactive: -5.21% | –
36 | O=C1CCCN1CCCNc1ncnc2c1cnn2-c1ccc(Cl)cc1 | – | active: 3.16 µM
37 | CCn1c(SCC(=O)NC(=O)Nc2ccc3c(c2)OCCO3)nnc1-c1cccs1 | inconclusive: -1.97% | –
38 | COc1ccccc1C[C@@H](Cc1nc2ccccc2[nH]1)c1nc2ccccc2[nH]1 | inactive: -9.69% | –
39 | CCc1nc2cc(C)nn2c2nc3ccccc3n12 | – | active: 3.16 µM
40 | CCN1CCCC1CNC(=O)c1ccc(N2CCCC2=O)cc1 (stereo not drawn) | – | inconclusive: 0.0794 µM [falling, full curve]
41 | Cc1ccccc1NC(=O)CSc1nc(Nc2ccccc2)nc(N2CCOCC2)n1 | inactive: -6.4% | –
42 | Cc1cc2nc(C)n3c4ccccc4nc3n2n1 | – | inconclusive: 12.6 µM [rising, single point]

Row | SMILES | activity change, negative = inhibition | Potency
43 | Fc1ccc(-c2cc(C(F)(F)F)nc(-n3cncn3)n2)cc1 | – | inconclusive: 12.6 µM [rising, single point]
44 | CC(C)Cn1c(CN(C)Cc2ccccc2)nc2c1c(=O)n(C)c(=O)n2C | – | inconclusive: 10 µM [rising, single point]
45 | Cc1cc2cc(CCNC(=O)CC(C)(C)C)c(=O)[nH]c2cc1C | – | inconclusive: 12.6 µM [rising, single point]
46 | CCOC(=O)c1oc2cc(O)ccc2c(=O)c1-c1ccccc1OC | inactive: 5.41% | –
47 | Cc1ccccc1N(CC(N)=O)S(C)(=O)=O | – | inconclusive: 0.02 µM [rising, full curve, poor fit]
48 | CN(C)c1ccc(/C=[N+](\[O-])C(C)(C)/C=N/O)cc1 | – | inconclusive: 0.02 µM [rising, full curve]
49 | COc1cc(C(=O)O)nc2ccccc12 | inactive: 2.18% | –
50 | Cn1c(C(C#N)/C(=N\S(=O)(=O)c2cccs2)c2ccccc2)nc2ccccc21 (stereo not drawn) | – | inconclusive: 25.1 µM [rising, single point]
51 | CN(C)c1ccc(-c2cc(N(C)Cc3ccco3)ncn2)cc1 | – | inconclusive: 15.8 µM [rising, single point]
52 | COc1cc2ccc([C@H](C)NCC#N)cc2cc1OC | inactive: 1.19% [at 7.6 µM] | –
53 | Cc1cc(C)cc(N2CCCn3c2nc2c3c(=O)n(CCN3CCOCC3)c(=O)n2C)c1 | inactive: 6.61% | –
54 | Cc1c(N(C)C(=O)C2CCCN2S(=O)(=O)c2ccccc2)c(=O)n(-c2ccccc2)n1C (stereo not drawn) | – | inconclusive: 10 µM [rising, partial curve, poor fit]
55 | Cc1c(-c2nc(N)nc(Nc3ccc(F)cc3)n2)oc2ccccc12 | – | inconclusive: 15.8 µM [rising, single point]
56 | CCCN1CCCc2cc(CN)ccc21 | inconclusive: 19.9% | –
57 | Cc1cc(NC(=O)CSc2nnc(-c3ccncc3)n2N)ccc1Br | inactive: -8.15% | –
58 | CC(=O)c1c(C)oc(C)c1CSCc1ccc(C(=O)O)o1 | inactive: -6.4% | –
59 | Cn1c(=O)oc2cc(S(=O)(=O)N3CCN(Cc4ccc5c(c4)OCO5)CC3)ccc21 | inconclusive: -18.4% | –
60 | Oc1cnc2ccccc2c1CN1CCOCC1 | inactive: -3.93% | –
61 | COC(=O)C(C)Sc1ccc2nnc(-c3cccc(F)c3)n2n1 (stereo not drawn) | – | inconclusive: 12.6 µM [rising, partial curve]
62 | O=C(Nc1ccc2c(c1)oc1ccccc12)c1cccnc1 | inactive: -9.75% | –
63 | CCN1CCCC1Cn1c(-c2ccccc2)nc2c(NCCOC)nc(C)nc21 (stereo not drawn) | inactive: -19.8% | –

Row | SMILES | activity change, negative = inhibition | Potency
64 | CCc1c(C)c2ccc(O)c(CN(C)C)c2oc1=O | – | inconclusive: 15.8 µM [rising, single point]
65 | C[N+](C)(C)[C@@H](C1=CCCC1=O)c1ccccc1 | – | inconclusive: 1 µM [rising, single point]
66 | CC(=O)N1CC=C2C(C#N)=C(N)C(C#N)(C#N)C(C)C2C1 (stereo not drawn) | inactive: -3.75% | –
67 | COc1cc(C2=NOC(C(=O)N3CCN(c4ccc(F)cc4)CC3)C2)cc(OC)c1OC (stereo not drawn) | – | active: 0.631 µM
68 | COc1cccc(N2CCN(C3OC(=O)c4ccccc43)CC2)c1 (stereo not drawn) | inconclusive: -12.1% | –
69 | O=c1c(-c2cccs2)nc2cncnc2n1C1CC1 | inconclusive: 29.5% | –
70 | Cn1c(COc2ccc(Cl)cc2)nnc1SCc1ncc(-c2ccccc2)o1 | inconclusive: 13.7% | –
71 | COc1ccc2nc(NC(=O)C(NS(=O)(=O)c3cccs3)C(C)C)sc2c1 (stereo not drawn) | inconclusive: 19.3% | –
72 | CCC/C=C(\CCC)C(NC(=O)c1ccc(C(F)(F)F)cc1)c1ccccc1 (stereo not drawn) | inconclusive: 8.25% | –
73 | Cc1ccc(C)c(NS(=O)(=O)c2c(C)ccc3nsnc23)c1 | – | inconclusive: 3.16 µM [falling, single point]
74 | O=C(O)c1ccc(C(=O)O)c(C(=O)Nc2ccc3c(c2)Cc2ccccc2-3)c1 | inconclusive: -13.1% [at 7.6 µM] | –
75 | C/C=C/c1ccc(OCCCN2C(=O)NC(C)(C)C2=O)c(OC)c1 | inconclusive: -17.5% | –
76 | Fc1cccc(NCc2ccoc2)c1 | inconclusive: 21.4% [at 7.6 µM] | –
77 | Cc1cccc2cc3c(nc12)SC(=NCC1CCCO1)N(Cc1ccco1)C3 (stereo not drawn) | – | inconclusive: 1 µM [falling, partial curve]
78 | Nc1c(S(=O)(=O)c2cccs2)c2nc3ccccc3nc2n1/N=C/c1cccc(O)c1 | – | inconclusive: 3.16 µM [rising, partial curve]
79 | CCOc1ccc(-n2nc(C(=O)N3CCOCC3)c3ccccc3c2=O)cc1 | inactive: -1.79% | –
80 | CN1CCN(c2ncc3nc(-c4cccs4)c(=O)n(CCC#N)c3n2)CC1 | – | inconclusive: 2 µM [rising, full curve]
81 | Cc1cc(C)c2c(=O)n(CC(=O)N3CCC(Cc4ccccc4)CC3)sc2n1 | – | inconclusive: 15.8 µM [falling, single point]
82 | COC(=O)c1cccc(C(=O)Nc2ccc(C)cc2Br)n1 | inconclusive: -3.05% | –
83 | O=C(NCCc1ccccc1)C1CCCN(S(=O)(=O)c2cccc3nonc23)C1 (stereo not drawn) | inactive: -7.03% | –
